Experimental data as given in PubChem BioAssay AID1347417 (National Center for Advancing Translational Sciences (NCATS), 2020).
About 5,300 (4.4%) of roughly 120,000 compounds were called active. The shares of active, inactive and inconclusive entries below differ from those in the screen. Calls follow the shape of the dose curve; as a rule, active = well fitted inhibition curve with a large enough effect; inconclusive = small, poorly fitted or top-dose-only effect; inactive = no such curve, though single readings can be large or run the other way. Potencies of inconclusive entries are doubtful fits and often do not repeat.

assay: qHTS Primary assay for Inhibitors of Plasmodium falciparum Dd2 growth in vitro; also: nearly all actives have a fitted effect of over 65% in size;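 as to activity, negative = inhibition: plate controls were DMSO vehicle for no effect and reference drug for full effect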; conditions: P. falciparum Dd2 growth, SYBR Green, 72 h; activity, negative = inhibition: at 28.9 µM (top of the series) unless noted; series mostly up to 28.9 µM
How it was run: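 Infected erythrocytes (Dd2, 0.3% parasitemia, 2.5% hematocrit final) are added to compound in RPMI-1640/Albumax II medium, grown 72 h at 37C in low oxygen, then lysed with saponin/Triton-X containing SYBR Green and read by fluorescence.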
Potency is read from the fitted curve at half-maximal effect; tags tell the direction and shape of the fitted curve.

SMILES	activity, negative = inhibition	Potency	outcome
COc1ccccc1NC(=O)N1CCC(N2CC3CC(C2)[C@H]2CCCC(=O)N2C3)CC1 (some centres not stated)	inactive: -12.6%		
Cc1nc2c(c(=O)[nH]1)CCN(CC1(O)CNCCOC1)CC2 (configuration not stated)	inactive: -0.213%		
CCCc1cc(CNC(=O)c2ccc(N3CCCN(CCC)CC3)nc2)on1		inconclusive: 10 µM [inhibitor, single point]	
CCc1ccccc1Nc1nn2c(=O)c3ccc(C(=O)NC(C)C)cc3nc2s1	inactive: -19.9%		
O=C(C[C@@H]1CCNC[C@@H]1Cc1cc(COc2ccccc2)on1)NC1CCCCC1	inactive: -12.2% [at 44.1 µM]		
CCOc1ccccc1CN1CCC[C@H]1C(=O)N1CCCCCCNC(=O)CC1		active: 6.31 µM	
CC(C)C12CN3CC(C(C)C)(CN(C1)C3c1ccccn1)C2=O (configuration not stated)		active: 8.91 µM	
CN(Cc1cccc(CCN)c1)Cc1cccc2ncccc12		active: 7.08 µM	
O=C(c1n[nH]c2ccccc12)N1CCC(N2C(=O)C(OCC3CC3)C23CCCCC3)CC1 (configuration not stated)		active: 4.47 µM	
O=C(c1ccc2c(c1)OCO2)N1C[C@@H](CO)[C@H](c2nc(C3CC3)no2)C1		inconclusive: 17.8 µM [inhibitor, single point]	
O=C(CC1CC1)N1C[C@H]2OC(=O)N(CCc3cccc(Cl)c3)[C@H]2C1	inactive: 2.24%		
COC[C@H]1CCCN1C[C@H]1CN2CC[C@H]1C[C@@H]2CNC(=S)Nc1ccc(-n2cccn2)cc1			inactive
C[S+](=O)([O-])N1Cc2ccccc2CC2(CCCN2CC2CCNCC2)C1 (configuration not stated)	inactive: 17.8%		
CCNc1cc(N2CCC(CCC(=O)Nc3ccc(C)cc3C)CC2)ncn1		inconclusive: 17.8 µM [inhibitor, single point]	
COCCS(=O)(=O)c1ncc(CN2CC[C@@H]3CCCC[C@H]3C2)n1Cc1ccccc1		active: 6.31 µM	
COc1cccc(N2CCN(C(=O)c3cnn(-c4ccccc4Cl)c3C3CCN(C(=O)OC(C)(C)C)CC3)CC2)c1		inconclusive: 12.6 µM [inhibitor, partial curve, poor fit]	
CCCCc1ccc(NS(=O)(=O)c2cc3c4c(c2)CC(=O)N4CCC3)cc1		inconclusive: 11.2 µM [inhibitor, single point]	
CCc1ccc2oc(-c3cc(NC(=O)c4cc(OC)c(OC)c(OC)c4)ccc3O)nc2c1		inconclusive: 3.98 µM [inhibitor, single point]	
COc1ccc2[nH]c3c(c2c1)CCNC31CCN(Cc2ccc(F)cc2F)CC1		inconclusive: 1.41 µM [inhibitor, full curve, poor fit]	
CCCCN(C)C(=O)CSc1c2c(nc3ccc(Cl)cc13)CCCC2		inconclusive: 10 µM [inhibitor, single point]	
CC1=C[C@@H](CNC(=O)c2ccccc2)[C@H](C(C)C)C[C@H]1Cc1nnc(-c2cncn2C)o1	inactive: -5.85% [at 44.1 µM]		
O=C1CCN(S(=O)(=O)c2ccccc2)CCCN(C(=O)Cc2cccc(F)c2)CCN1	inactive: -12.9%		
CC(C)CN1Cc2ccccc2-n2ccnc2C12CCN(C(=O)c1ccn[nH]1)CC2		inconclusive: 1.58 µM [inhibitor, partial curve, poor fit]	

SMILES	activity, negative = inhibition	Potency	outcome
COc1cccc(CN2CC[C@@H]3CN(S(C)(=O)=O)[C@@H]3C2)c1OC			inactive
Cc1cc(C(=O)N2CCN(c3ccccc3F)CC2)c2c(C)nn(-c3ccccc3)c2n1		inconclusive: 7.94 µM [inhibitor, partial curve, poor fit]	
CCc1noc(-c2ccn3c(CNC(=O)C(CC)c4ccccc4)nnc3c2)n1 (configuration not stated)		inconclusive: 1 µM [inhibitor, partial curve, poor fit]	
COc1ccc(-c2c3c(nc4sc(C(=O)Nc5cccc(OC)c5)c(N)c24)CC(C)(C)CC3=O)cc1		inconclusive: 10 µM [inhibitor, single point]	
CN(C)c1ccc(-c2ccnc(N[C@H]3CO[C@H]4[C@@H]3OC[C@@H]4NC(=O)NCc3ccccc3)n2)cc1		inconclusive: 0.178 µM [inhibitor, full curve, poor fit]	
COc1ccc(Cn2c(C3CCN(C(=O)c4ccc(C)s4)CC3)n[nH]c2=O)cc1		inconclusive: 17.8 µM [inhibitor, single point]	
CN(Cc1cccnc1)Cc1nc(C2(O)CCN(CC3CC3)CC2)cs1		inconclusive: 31.6 µM [inhibitor, single point]	
C#CCNC(=O)C1=NOC2CN(C(=O)c3ccn(C)n3)CC12 (configuration not stated)	inconclusive: -166% [inhibitor]		
Cc1nccn1Cc1nnc(C2CCCN(CC3CCC3)C2)n1C (configuration not stated)	inactive: -0.52%		
O=C(Cn1c(=O)c2c(n1Cc1ccccc1)CN(Cc1ccccc1)CC2)Nc1cccc(F)c1	inactive: -9.5%		
COc1ccc(N(C)C(=O)Cn2cnc3sc(C)c(S(=O)(=O)N4CCN(c5ncccn5)CC4)c3c2=O)cc1		inconclusive: 17.8 µM [inhibitor, single point]	
Cc1ccc(-c2nc3cccc(C)n3c2Nc2ccc3c(c2)OCCO3)cc1		inconclusive: 10 µM [inhibitor, single point]	
Cc1cnc(CCNC(=O)C2CC=CC2)n1C1CC1		inconclusive: 11.2 µM [inhibitor, single point]	
COc1ccc(NC(=O)c2cc3n(n2)CC(c2ccc(Br)cc2)OC3)cc1OC (configuration not stated)		inconclusive: 20 µM [inhibitor, single point]	
COc1ccc(CNC(=O)c2cc3n(n2)CC(c2ccc4c(c2)OCO4)OC3)cc1 (configuration not stated)	inactive: -11.4%		
Cc1cccc(Cn2c(=O)n(-c3cc(C)cc(C)c3)c(=O)c3oc4ccccc4c32)c1		inconclusive: 10 µM [inhibitor, single point]	
CCC(C)NC(=O)CCSc1nc(-c2ccc3c(c2)OCO3)cc(C(F)(F)F)n1 (configuration not stated)		inconclusive: 10 µM [inhibitor, single point]	
COc1ccc(CN2CC3(C2)C(=O)N(Cc2ccc(C)o2)C(=O)[C@@H]2C[C@@H](O)CN23)cc1	inactive: -8.13% [at 44.1 µM]		
CCN(CC)C(=O)c1ccc(-c2nnc3ccc(NC(=O)C4CC4)cn23)cc1		inconclusive: 0.891 µM [inhibitor, full curve, poor fit]	
CN(Cc1nc2ccc(Cl)cc2[nH]1)C(=O)c1ccc2nccn2c1	inactive: -7.62%		
CCN1C(=O)C2CC3(CCN(Cc4cccc(OC(F)(F)F)c4)CC3)CN2C1=O (configuration not stated)		inconclusive: 11.2 µM [inhibitor, single point]	
Cc1ccc(C2NC(=O)c3n[nH]c(-c4cccs4)c32)cc1 (configuration not stated)	inactive: -2.16%		
CCc1ccc(S(=O)(=O)N2CCC(n3cnnc3CC)CC2)cc1		inconclusive: 1.26 µM [inhibitor, full curve]	

SMILES	activity, negative = inhibition	Potency	outcome
COc1cc2c(cc1OCC1CC1)NC(=O)C21CCN(C(C)=O)CC1	inactive: -19.7% [at 44.1 µM]		
COC(=O)[C@@H]1Cc2ncn(Cc3ccccc3)c2CN1C(=O)c1ccc(OC)cc1		inconclusive: 31.6 µM [inhibitor, single point]	
O=c1cc(COc2ccccc2Cl)nc2scc(-c3ccccc3)n12		inconclusive: 17.8 µM [inhibitor, single point]	
COc1ccccc1CNC(=O)CCn1c(=O)c2ccccc2n(CC(=O)Nc2cc(Cl)ccc2C)c1=O		inconclusive: 5.62 µM [inhibitor, partial curve]	
CCOC(=O)c1ccc(N2C(=O)c3[nH]nc(-c4ccc(OC)cc4)c3C2c2cccc(O)c2)cc1 (configuration not stated)		inconclusive: 0.891 µM [inhibitor, full curve, poor fit]	
CC(C)c1ccccc1NC(=O)Cn1cccc1-c1nc(-c2ccc(F)cc2)no1		inconclusive: 0.251 µM [inhibitor, full curve, poor fit]	
Cc1cccc(OCC(=O)N2CCN(C(=O)c3nnn4c3COC(c3ccc(Cl)cc3)C4)CC2)c1 (configuration not stated)		inconclusive: 3.98 µM [inhibitor, single point]	
O=C(Nc1ccccc1Cl)N1CCC2(CC1)Oc1ccccc1C(=O)N2Cc1ccc(F)cc1		active: 14.1 µM	
CC(C(=O)N1CCCN(C)c2ccccc21)c1ccccc1 (configuration not stated)		inconclusive: 17.8 µM [inhibitor, single point]	
Cc1ccc(-c2cn3c(n2)CO[C@@H](CNS(C)(=O)=O)C3)cc1	inactive: -1.48% [at 44.1 µM]		
O=C([C@@H]1C[C@H](Oc2cccnc2)CN1C(=O)Cn1c(=O)oc2ccccc21)N1CCCC1		inconclusive: 3.98 µM [inhibitor, partial curve, poor fit]	
CC(C)(C)C1CCC2(CC1)NC(=O)N(CC(=O)N1CCN(c3ccc(F)cc3)CC1)C2=O (configuration not stated)	inactive: -13.5%		
CCN1C(=O)CCC2(C(=O)Nc3ccc(C)c(F)c3)CCCC=C12 (configuration not stated)		inconclusive: 11.2 µM [inhibitor, single point]	
CN1[C@@H](CCC(=O)NCc2ccccc2)CNC(=O)[C@@H]2[C@H]1CCN2Cc1ccc(S(C)(=O)=O)cc1	inactive: -5.4%		
O=C(NC1CC1)[C@@H]1C[C@H](Oc2ccccc2)CN1C(=O)C1CCC1	inactive: 16.8%		
O=C(CN1C(=O)CCn2nc(-c3ccccc3)cc21)NCc1ccccc1		inconclusive: 6.31 µM [inhibitor, partial curve, poor fit]	
C[C@H](C(=O)NCCN1CCOCC1)C1CC[C@@]2(C)Cc3sc(CS(=O)(=O)Cc4ccc(F)cc4)nc3[C@@H](C)[C@@H]2[C@H]1O (some centres not stated)	inactive: -16.7%		
COC(=O)COCC(=O)NC[C@@H]1C=C(C)[C@H](CC(=O)NCc2ccc(F)cc2)C[C@H]1C(C)C	inactive: -14.1%		
COc1ccc(NC(=O)c2ccc3c(c2)N(C)C2CCCCCN2C3=O)cc1Cl (configuration not stated)	inactive: -9.79%		
O=C1COc2ccc(-c3ccsc3)nc2CN1Cc1ccc(C(F)(F)F)cc1		active: 7.94 µM	
CC1CCN(c2nc3ccc(C(=O)NC(C)C)cc3s2)CC1		inconclusive: 8.91 µM [inhibitor, single point]	
